These are yes or no findings as the source states them, for the method shown. In cells and extracts the contact can be indirect. Some binding calls cover weakened binding; strength is not graded here. Tags and fused reporters may be left off the sequences shown.
Legend:
[1] = target: T1, FAM83H with endogenous C-terminal GFP tag (A549 FAM83H^GFP/GFP) (human (endogenous in A549)) (UniProt Q6ZRV2); assay: co-IP; GFP IP from lysates of A549 FAM83H^GFP/GFP (knock-in) cells or of A549 wild type cells transiently expressing GFP; immunoblot of endogenous preys
T1 sequence: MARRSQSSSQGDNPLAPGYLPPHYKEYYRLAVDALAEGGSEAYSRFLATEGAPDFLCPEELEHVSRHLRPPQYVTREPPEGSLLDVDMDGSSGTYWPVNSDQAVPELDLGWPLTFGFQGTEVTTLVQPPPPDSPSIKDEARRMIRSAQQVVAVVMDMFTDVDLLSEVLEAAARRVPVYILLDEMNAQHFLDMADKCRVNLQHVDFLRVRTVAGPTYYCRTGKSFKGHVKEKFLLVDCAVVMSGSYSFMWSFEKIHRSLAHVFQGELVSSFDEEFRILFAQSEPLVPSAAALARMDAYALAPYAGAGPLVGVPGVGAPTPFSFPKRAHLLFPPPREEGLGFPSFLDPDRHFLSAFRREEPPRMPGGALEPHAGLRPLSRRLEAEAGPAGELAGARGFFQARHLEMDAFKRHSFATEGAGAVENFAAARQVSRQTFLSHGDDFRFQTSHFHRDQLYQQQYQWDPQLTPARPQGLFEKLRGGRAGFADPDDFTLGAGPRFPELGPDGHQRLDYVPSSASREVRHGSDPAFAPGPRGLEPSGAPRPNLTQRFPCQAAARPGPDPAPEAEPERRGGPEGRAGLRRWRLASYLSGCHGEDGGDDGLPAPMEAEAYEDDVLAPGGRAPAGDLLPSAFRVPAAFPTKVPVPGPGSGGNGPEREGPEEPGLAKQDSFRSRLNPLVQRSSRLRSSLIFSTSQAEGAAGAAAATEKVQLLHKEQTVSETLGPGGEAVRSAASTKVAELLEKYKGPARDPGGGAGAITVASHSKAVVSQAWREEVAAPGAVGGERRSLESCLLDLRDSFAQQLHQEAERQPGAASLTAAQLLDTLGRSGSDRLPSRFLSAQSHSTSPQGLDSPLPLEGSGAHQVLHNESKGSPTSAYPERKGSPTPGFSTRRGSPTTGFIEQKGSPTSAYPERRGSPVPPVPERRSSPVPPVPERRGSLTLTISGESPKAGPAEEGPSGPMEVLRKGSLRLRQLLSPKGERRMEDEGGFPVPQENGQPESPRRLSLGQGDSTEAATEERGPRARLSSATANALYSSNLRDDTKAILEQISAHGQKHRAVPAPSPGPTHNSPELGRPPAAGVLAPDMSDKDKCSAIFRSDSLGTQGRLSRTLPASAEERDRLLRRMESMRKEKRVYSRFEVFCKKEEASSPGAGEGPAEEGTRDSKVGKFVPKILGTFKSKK

The chains behind the UniProt entries cited, without tags or fusion partners.
UniProt P49674: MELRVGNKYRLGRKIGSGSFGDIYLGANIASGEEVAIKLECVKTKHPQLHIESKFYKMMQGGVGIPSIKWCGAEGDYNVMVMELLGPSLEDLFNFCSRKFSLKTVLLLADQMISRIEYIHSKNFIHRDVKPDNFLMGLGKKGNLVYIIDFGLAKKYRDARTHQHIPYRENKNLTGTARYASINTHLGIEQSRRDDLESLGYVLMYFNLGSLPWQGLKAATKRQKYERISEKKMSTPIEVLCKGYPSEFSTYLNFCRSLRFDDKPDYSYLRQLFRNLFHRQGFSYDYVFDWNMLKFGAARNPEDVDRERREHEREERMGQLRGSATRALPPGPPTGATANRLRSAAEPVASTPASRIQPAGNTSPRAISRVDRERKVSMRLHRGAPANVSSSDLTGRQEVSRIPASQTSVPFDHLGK

[2] = target: T2, FLAG-FAM83H^S287X (human) (UniProt Q6ZRV2); assay: co-IP; anti-FLAG agarose IP from lysates of U2OS FAM83H-/- cells transiently transfected with FLAG-FAM83H constructs, 1 h at 4 °C (16 h in Fig. 6C); immunoblot of endogenous preys
T2 sequence: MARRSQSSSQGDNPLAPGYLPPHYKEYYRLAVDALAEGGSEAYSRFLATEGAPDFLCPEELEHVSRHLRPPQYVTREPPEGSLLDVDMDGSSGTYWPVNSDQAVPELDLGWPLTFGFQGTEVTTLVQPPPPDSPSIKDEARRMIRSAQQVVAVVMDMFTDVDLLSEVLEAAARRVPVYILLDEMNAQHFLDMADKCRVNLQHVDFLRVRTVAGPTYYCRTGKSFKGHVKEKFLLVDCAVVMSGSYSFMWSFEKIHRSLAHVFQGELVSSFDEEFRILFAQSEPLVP

[3] = target: T3, FLAG-FAM83H^WT (U2OS FAM83H-/-) (human) (UniProt Q6ZRV2); assay: as above
T3 sequence: T1 sequence

binding [1]: binds | binding [2]: binds | binding [3]: binds
Substance: protein kinase CK1 isoform ε (CK1ε), endogenous (from UniProt P49674 1-416) (enzyme)
